# Experimental data from ChEMBL document CHEMBL4888484, “Replenishing the malaria drug discovery pipeline: Screening and hit evaluation of the MMV Hit Generation Library 1 (HGL1) against asexual blood stage Plasmodium falciparum ,using a nano luciferase reporter read-out” (2022).
# Hit rate of the full screen: of about 150,000 compounds, about 540 (0.36%) showed an effect of 50% or more. Some of the results follow.
# System: Plasmodium falciparum
# Experiment: Primary screen in NF54 nanoGlo assay, in single point, at 2uM, 72h; a lower Z score goes with more inhibition
# Format: functional, Erythrocyte
# Details: timepoint 72 hour
SMILES,% Inhibition,Z score
O=C(NC1CCN(CC(F)(F)F)CC1)c1cccc2c1OCO2,2%,-0.34
O=C(Cn1nc2c3ccccc3ncn2c1=O)NCCc1ccc(Cl)cc1,-3%,0.42
CCC(NC1CCCC(C(=O)NC(C)C)C1)c1cnn(C)c1 (stereo not given),-1%,0.09
CCCc1nc(C(=O)N2CCc3[nH]c4c(Cl)cccc4c3C2)cs1,11%,-1.49
c1csc(Cn2ccnc2-c2ccnc3ccccc23)c1,-7%,0.91
Cc1nc(CNC(=O)[C@H]2CCCN2S(=O)(=O)c2cccc(C(F)(F)F)c2)cs1,-4%,0.55
CCOc1cc(Cl)ccc1NCc1noc([C@@H]2COc3ccccc3O2)n1,-6%,0.56
Cc1nc(N2CCN(C)CC2)cc(N2CCN(C(=O)c3ccccc3Cl)CC2)n1,0%,0.05
Cc1ncnc(CN2CCOCC2)c1O,-9%,1.16
CCCCn1nc(CC(N)=O)nc1-c1cn2ccsc2n1,6%,-1.03
Cc1ccc(OC2(C(=O)O)CCN(CCCc3ccccc3)CC2)cc1,-12%,1.4
CCc1cnc(C)nc1N[C@H](c1ccccn1)C(C)C,-5%,0.91
Cc1nnsc1C(=O)N1CCn2nccc2C1,-8%,1.19
COc1cccc(NC(=O)N[C@H]2[C@H](O)[C@@H](N3CCN(c4ccccc4)CC3)[C@@H]3OC[C@H]2O3)c1,1%,-0.09
Nc1nc([C@H]2CCOC2)cc(N2CCC(c3nc4ccccc4o3)CC2)n1,4%,-0.59
O=C1CC(c2nc(C3CCOC3)no2)c2ccccc2N1 (stereo not given),3%,-0.34
CN(C)c1nn(CC(=O)Nc2ccc(F)cc2)cc1-c1ccccc1,7%,-0.82
C=CCn1cnc2c1c(=O)n(C1CC1)c(=O)n2-c1ccccc1C,4%,-0.54
c1ccc2oc(-c3cc(-c4ccc5c(c4)OCO5)nc4ccc5ccccc5c34)cc2c1,-5%,1.02
CCCNc1ncc(CN2CC[C@](C)(O)[C@@H](O)C2)cn1,5%,-0.74
CC#CC(=O)N[C@H]1CC(=O)N(CC(C)(C)C)C1,9%,-1.69
CC(C)N1C[C@@H]2C[C@H]1C(=O)NC[C@@H]1CCC[C@@H](CCOc3ccccc3C(=O)N2)O1,-13%,2.06

SMILES,% Inhibition,Z score
COCCn1c(N)c(C(=O)CN2CC(C)OC(C)C2)c(=O)[nH]c1=O (stereo not given),-11%,1.66
Cc1cccc(OC[C@@H](O)CN(C(=O)NCc2ccc3c(c2)OCO3)C(C)C)c1,6%,-0.75
COC(=O)c1cn([C@H]2C[C@@H](C(=O)NCCc3ccc(F)cc3)N(C(C)C)C2)nn1,16%,-2.12
CC(C)NC(=O)Cn1cnc2c(-c3ccc(Cl)cc3)cn(C)c2c1=O,4%,-0.57
COc1ccccc1-c1nc(-c2cccc(NC(=O)Nc3ccc(F)cc3)c2)no1,-4%,0.45
CCOc1ccc(NC(=O)c2cccc3c(=O)c4c([nH]c23)CCC4)cc1,-7%,1.39
CC1=C(C(=O)N2CCN(c3cnccn3)CC2)OCCO1,-14%,2.42
CC(C)C[C@H](C)N1CCN(/C(=N/c2cccc(C(=O)O)c2)NCc2ccccc2)CC1,-21%,1.97
Cc1sc(N)nc1Cc1ccccc1,-19%,1.72
Cc1nnc(CN(C)CCCn2cccn2)s1,-9%,1.48
CC(C)N(CCO)C(=O)Nc1cnn(C)c1,-4%,0.52
COc1ccc(NC(=O)Cn2c(COc3ccccc3)nc3ccccc32)cc1Cl,3%,-0.43
CN(C)CCN(C)S(=O)(=O)c1c[nH]c(C(=O)N2CCCC2)c1,-7%,0.8
O=C(C1CCC1)N1CCC[C@H]1c1nc2ccccc2s1,-2%,0.24
O=C(NC[C@H]1CCCO1)N1CCN(c2nccs2)C(=O)C1,33%,-0.8
c1ccc2c(OCC3CCOCC3)nccc2c1,-8%,1.02
COc1ccc(NC(=O)c2c(C)oc3nc(C)nc(N4CCOCC4)c23)cc1OC,-6%,0.98
O=C(COc1ccc(F)cc1)c1ccc2c(c1)N(CC(=O)N1CCOCC1)C(=O)CO2,-8%,1.06
Cc1nc(-c2nnc[nH]2)sc1C(=O)OCc1nc2ccccc2[nH]1,0%,-0.02
COc1ccc(-n2nc(C(=O)Nc3ccc(C)c(Cl)c3)cc2-c2cccnc2)cc1,-5%,0.92
COc1ccc2cc(S(=O)(=O)N3CCc4ccccc43)ccc2c1,-17%,2.23
CC1NC(=O)N(C2c3cccc(F)c3CCC2C)C1=O (stereo not given),0%,-0.01

SMILES,% Inhibition,Z score
Cc1ccc(CN2CCN(C[C@H](C)C(=O)NCc3ccc(F)cc3F)C(=O)C2=O)cc1,0%,-0.02
Cc1cccc(NC(=O)N[C@@H]2C=C[C@H](CO)C2)n1,-17%,1.46
CCn1ncc(NC(=O)[C@@H]2NCCOc3ccccc32)c1C,-6%,1.19
COC(=O)C(C)(C)CNCc1cccc(F)c1F,-15%,2.05
NC(=O)c1c(Cl)cccc1NC(=O)c1ncoc1-c1ccco1,-3%,0.61
COC1([C@H](C)NC(=O)c2c[nH]c(C(F)(F)F)c2)CCC1,-16%,1.87
COc1cccc2c(C(=O)Nc3scnc3C)n[nH]c12,-12%,1.48
CN1CCCN(C(=O)C(=O)Nc2ccc(F)cc2Cl)CC1,-11%,1.44
COc1cccc(-c2nc(OC(C)C)nn2-c2cccc(NC(=O)c3ccccc3F)c2)c1,3%,-0.54
O=C(NC1CC1)[C@H]1CCCN(C2CCN(Cc3c(F)cccc3F)CC2)C1,-7%,1.24
COc1cccc(NC(=O)c2[nH]c3cc(C)sc3c2CN2CCOCC2)c1,-1%,0.08
Cc1nn(C)c(C)c1CNC(=O)Cn1ccc2c(C)cccc21,-2%,0.24
Cc1nn2cnnc2c(C)c1CCC(=O)NCC1CC2C=CC1C2 (stereo not given),-18%,2.23
Cc1cccc(NC(=O)N2C3CCC2CC(N2C(=O)CCC2=O)C3)c1 (stereo not given),-5%,0.84
CCn1c(CN2CCC[C@H](C(=O)c3cccc(OC)c3)C2)nc2ccccc21,-5%,0.65
COCCN1CCCC1CNC(=O)NC1C=CCCC1 (stereo not given),-5%,0.64
CCN(CC)C[C@H](O)COc1ccc(CN(C)CC(=O)OC)cc1OC,-22%,1.96
Cc1ccccc1-n1c(=O)c2sccc2n(CC(=O)NCc2ccc(Cl)cc2)c1=O,4%,-0.63
Cc1ccc(NC(=O)c2cn(C3CCCCC3)c(=O)c3nnsc23)cc1,0%,0.05
CCCN1C(=O)C2(CCCCC2)NC12CCN(S(C)(=O)=O)CC2,8%,-0.84
Cc1n[nH]cc1-c1nccnc1N1CCCC1,-9%,1.22
CCCCNC(=O)N(Cc1c(C)nn(-c2cccc(F)c2)c1N1CCN(CC)CC1)[C@@H](C)CC,11%,-1.39

SMILES,% Inhibition,Z score
Cn1ncnc1COc1ccc(S(=O)(=O)NCc2ccoc2)cc1,-6%,0.81
COCCn1cc(CCNC(=O)Nc2cc(C)cc(C)c2)c2cccnc21,-2%,0.21
O=C(NCCCn1cccn1)c1cn(C[C@H](O)c2ccccc2F)nn1,-8%,1.46
CC[C@@](NC(=O)c1ccon1)(C(N)=O)C(C)C,3%,-0.29
Cc1nc(N2CC[C@]3(CCN(Cc4ccccc4)C3)C2)cc2nncn12,21%,-2.67
Cc1cc(Cn2ccc(C(C)(C)C)n2)no1,-7%,0.79
c1ccc(C(NCc2cnc(-c3ccco3)s2)C2CCCO2)cc1 (stereo not given),-16%,1.34
CCC(CC)(C(=O)N[C@H]1CC[C@@H](CO)CC1)C(=O)OC(C)(C)C,-2%,0.35
Clc1ccc(CN(Cc2cccnc2)Cc2ccccn2)cc1Cl,-3%,0.36
CNS(=O)(=O)c1ccc([C@@H]2C[C@H](NC(C)=O)C[C@H](CC(C)C)O2)cc1,-1%,0.16
C=CCN=C(NCCc1nccn1C(F)F)NCc1ccco1,0%,-0.03
NS(=O)(=O)Cc1cccc(F)c1F,-17%,2.49
CCc1cnc(NCC(C)(C)N2CCCCC2)nc1,11%,-1.58
CC(C)c1nc(CN(C)c2nc(N)nc3c2CCNCC3)cs1,1%,-0.22
O=C(NCc1ccccc1Cl)c1c[nH]c(=O)n(Cc2ccccc2F)c1=O,-3%,0.5
O=C(COc1ccc(-c2ccccc2)cc1)NCc1cccs1,-9%,0.95
COc1c[nH]c(C(=O)Nc2ccc(-c3nc[nH]n3)cc2)cc1=O,-7%,0.9
COc1cc(Cl)ccc1-c1nnc(N2CC[C@H](OC)C2)n1C,-5%,0.76
C[C@H](NC(N)=O)c1noc(Cc2ccc3c(c2)CCCO3)n1,-9%,1.65
